# The supplement of paper PMC9446081
# Among all 39,000 compounds or so, about 220 (0.56%) showed activity. This is one part of the list.
# Tested on: Escherichia coli K-12 BW25113
# Experiment: relative growth (OD600 normalised to plate interquartile mean) (fraction); higher = less growth inhibition, active = 0.2 or less
# Conditions: 50 µM; LB; incubation time: overnight (16-24 h)
# 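Note: static incubation at 37 °C against the wild-type strain, values averaged over two biological replicates.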
row,Compound,relative growth
1,C[C@@H]1CN([C@H](C)CO)C(=O)c2cc(NC(=O)Cc3ccccc3)ccc2O[C@@H](C)CCCCO[C@@H]1CN(C)Cc1ccc(Cl)c(Cl)c1,inactive: 1.03
2,Cc1noc(C)c1NC(=O)N(C)C[C@H]1Oc2ccc(NC(=O)Nc3cccc4ccccc34)cc2CC(=O)N([C@H](C)CO)C[C@@H]1C,inactive: 0.944
3,COS(=O)(=O)[O-].COc1cc(N)cn[n+]1-c1ccccc1,inactive: 0.987
4,COc1ccc(NC(=O)N(C)C[C@@H]2Oc3ccc(NS(=O)(=O)c4cn(C)cn4)cc3C(=O)N([C@@H](C)CO)C[C@H]2C)cc1,inactive: 1
5,O=C(c1ccncc1)N1C[C@H]2[C@@H](c3ccccc31)[C@@H](CO)N2C(=O)CN1CCOCC1,inactive: 0.98
6,C[C@H](CO)N1C[C@H](C)[C@H](CN(C)CC2CC2)Oc2ccc(NC(=O)Cn3cnnn3)cc2CC1=O,inactive: 0.999
7,C[C@H]1CN([C@@H](C)CO)C(=O)c2cc(NC(=O)c3ccncc3)ccc2O[C@H]1CN(C)Cc1ccc(C(=O)O)cc1,inactive: 0.994
8,C[C@@H]1CN([C@H](C)CO)C(=O)c2cc(NC(=O)Nc3ccc4c(c3)OCO4)ccc2O[C@@H](C)CCCCO[C@H]1CN(C)Cc1ccc(C(=O)O)cc1,inactive: 1.01
9,COc1ccc2c3c(n(c2c1)C)[C@@H](CO)N(C[C@]13CCN(CC1)C(=O)Nc1cccc(c1)F)C(=O)CN1CCOCC1,inactive: 0.995
10,CC(C)NC(=O)N(C)C[C@@H]1Oc2ccc(NS(=O)(=O)c3cccs3)cc2C(=O)N([C@H](C)CO)C[C@@H]1C,inactive: 1.02
11,C[C@@H]1CCCCO[C@H](CN(C)C(=O)Nc2ccc(F)cc2)[C@@H](C)CN([C@H](C)CO)C(=O)c2cc(NS(=O)(=O)c3ccccc3)ccc2O1,inactive: 1.02
12,COc1ccc(S(=O)(=O)N(C)C[C@@H]2Oc3ccc(NS(=O)(=O)c4ccc(F)cc4)cc3C(=O)N([C@@H](C)CO)C[C@@H]2C)cc1,inactive: 1.03
13,CCNC(=O)C[C@@H]1CC[C@H](NC(=O)C2CC2)[C@H](CO)O1,inactive: 0.974
14,COc1ccc(S(=O)(=O)N(C)C[C@H]2Oc3ccc(NS(=O)(=O)c4ccccc4)cc3CC(=O)N([C@@H](C)CO)C[C@H]2C)cc1,inactive: 0.988
15,C[C@H]1CN([C@@H](C)CO)S(=O)(=O)c2ccc(Br)cc2O[C@@H]1CN(C)C(=O)CCN1CCCCC1,inactive: 0.954
16,Nc1ccn([C@@H]2O[C@H](CO)[C@@H](O)C2(F)F)c(=O)n1,inactive: 0.958
17,Cc1nn(C)c2c1[C@@H](c1ccc(C(F)(F)F)cc1)C(C#N)C(=N)O2 (stereo partly drawn),inactive: 1.02
18,CN(C)CC(=O)N[C@H]1CC[C@@H](CCNS(=O)(=O)c2ccccc2)O[C@@H]1CO,inactive: 0.982
19,C[C@H](NC(=O)N(C)C[C@H]1OCc2ccccc2-c2c(n(C)c3ccccc23)C(=O)N([C@H](C)CO)C[C@H]1C)c1ccccc1,inactive: 1.02
20,Nc1ncn(Cc2ccccc2)n1,inactive: 1.02

row,Compound,relative growth
1,C[C@@H]1CCCCO[C@H](CN(C)C(=O)NC2CCCCC2)[C@H](C)CN([C@@H](C)CO)C(=O)c2cc(NS(=O)(=O)c3ccccc3)ccc2O1,inactive: 0.985
2,O=C(N/N=C/[C@H](O)[C@@H](O)[C@@H](O)[C@H](O)C(=O)O)c1ccccc1O,inactive: 0.993
3,COc1cc(C)c(C(=O)O)c(O)c1,inactive: 0.971
4,C[C@H](CO)N1C[C@H](C)[C@@H](CN(C)C(=O)Nc2cccc(C(F)(F)F)c2)OCc2ccccc2-c2c(n(C)c3ccccc23)C1=O,inactive: 1.01
5,C[C@H]1CN([C@@H](C)CO)S(=O)(=O)c2ccc(C#CC(C)(C)O)cc2O[C@@H]1CN(C)Cc1ccncc1,inactive: 0.995
6,Cc1noc(C)c1NC(=O)Nc1ccc2c(c1)CC(=O)N([C@H](C)CO)C[C@H](C)[C@H](CN(C)C(=O)Nc1cccc3ccccc13)O2,inactive: 0.973
7,Cc1ccc(S(=O)(=O)N2C[C@@H](O)COC[C@@H]3O[C@@H](CC(=O)NCCN4CCCCC4)CC[C@H]32)cc1,inactive: 0.994
8,C[C@H](CO)N1C[C@H](C)[C@@H](CN(C)C(=O)Nc2ccc3c(c2)OCO3)Oc2ccc(NC(=O)Cn3cnnn3)cc2C1=O,inactive: 1
9,C=CCOC(=O)[C@H]1[C@@H]2C(=O)O[C@@H](c3ccccc3)[C@@H](c3ccccc3)N2[C@@H](c2ccc(OCCOC(=O)[C@@H]3C[C@@H]4C(=O)NCC(=O)N4[C@@H]3c3cccc(OCCO)c3)cc2)[C@]12C(=O)Nc1ccccc12,inactive: 1.04
10,O=C1O[C@@H](c2ccccc2)[C@@H](c2ccccc2)N2[C@@H](c3ccc(O)cc3)[C@]3(C(=O)Nc4ccc(C#CC5=CCCCC5)cc43)[C@@H](C(=O)Nc3nc4ccccc4s3)[C@H]12,inactive: 1.02
11,CCS(=O)(=O)Nc1ccc2c(c1)C(=O)N(C)[C@@H]1CC[C@H](CC(=O)N[C@@H]3CCN(Cc4ccccc4)C3)O[C@H]1CO2,inactive: 0.992
12,COc1ccc(S(=O)(=O)Nc2ccc3c(c2)C(=O)N([C@H](C)CO)C[C@H](C)[C@H](CN(C)Cc2ccccc2)OCCCC[C@H](C)O3)cc1,inactive: 1
13,Cc1c(Cl)cccc1Nc1ccccc1C(=O)O,inactive: 0.969
14,C[C@@H]1CCCCO[C@H](CN(C)Cc2ccc3c(c2)OCO3)[C@@H](C)CN([C@@H](C)CO)C(=O)c2cc(NS(=O)(=O)c3ccc(Cl)cc3)ccc2O1,inactive: 0.975
15,COc1ccccc1S(=O)(=O)N(C)C[C@@H]1OCc2cn(nn2)CCCC(=O)N([C@@H](C)CO)C[C@@H]1C,inactive: 0.984
16,CCS(=O)(=O)N1CC[C@]2(CC1)CN([C@@H](CO)c1[nH]c3cc(ccc3c12)OC)S(=O)(=O)c1ccc(cc1)C,inactive: 0.99
17,CC(C)NC(=O)N(C)C[C@@H]1Oc2ccc(NS(=O)(=O)c3ccc(F)cc3)cc2CC(=O)N([C@H](C)CO)C[C@@H]1C,inactive: 0.998
18,C[C@@H]1CCCCO[C@H](CN(C)Cc2ccccc2)[C@@H](C)CN([C@H](C)CO)C(=O)c2cc(NC(=O)CCCCCC(=O)Nc3ccccc3N)ccc2O1,inactive: 1.01
19,COc1ccc(NC(=O)Nc2ccc3c(c2)CC(=O)N([C@H](C)CO)C[C@H](C)[C@@H](CN(C)Cc2ccc(Oc4ccccc4)cc2)O3)cc1,inactive: 1.04
20,COc1ccc(S(=O)(=O)Nc2ccc3c(c2)C(=O)N([C@@H](C)CO)C[C@H](C)[C@@H](CN(C)S(=O)(=O)c2cn(C)cn2)OCCCC[C@H](C)O3)cc1,inactive: 0.994

row,Compound,relative growth
1,C[C@@H]1CN([C@H](C)CO)C(=O)c2cc(NC(=O)Nc3ccccc3)ccc2O[C@@H](C)CCCCO[C@@H]1CN(C)S(=O)(=O)c1ccc(Cl)cc1,inactive: 1
2,C[C@H](CO)N1C[C@H](C)[C@H](CN(C)Cc2ccc(-c3ccccc3)cc2)Oc2ccc(NS(=O)(=O)c3ccccc3)cc2CC1=O,inactive: 1.04
3,COc1ccc(S(=O)(=O)Nc2cccc3c2O[C@H](CN(C)S(=O)(=O)c2ccccc2)[C@H](C)CN([C@H](C)CO)C3=O)cc1,inactive: 0.986
4,O=C(Cc1nn[nH]n1)NS(=O)(=O)c1ccccc1,inactive: 1.06
5,CC(C)(C)[S@@](=O)N1Cc2cc(C(=O)N[C@@H]3CCN(Cc4ccccc4)C3)nc(-c3cccc(-c4cccnc4)c3)c2[C@H]1CCO,inactive: 1.03
6,Nc1ccn(C2CSC(CO)O2)c(=O)n1 (stereo not drawn),inactive: 0.948
7,CC=C(C)C(=O)OC1C(OC(C)=O)C2(CO)C(O)CC3(C)C(=CCC4C5(C)CCC(OC6OC(C(=O)O)C(OC7OC(CO)C(O)C(O)C7O)C(O)C6OC6OC(CO)C(O)C(O)C6O)C(C)(CO)C5CCC43C)C2CC1(C)C (stereo not drawn),inactive: 0.74
8,COc1ccc(S(=O)(=O)Nc2ccc3c(c2)C(=O)N([C@H](C)CO)C[C@@H](C)[C@@H](CN(C)S(C)(=O)=O)OCCCC[C@H](C)O3)cc1,inactive: 0.99
9,C[C@H]1CN([C@@H](C)CO)C(=O)Cc2cc(NC(=O)CCC(F)(F)F)ccc2O[C@@H]1CN(C)S(=O)(=O)c1cccs1,inactive: 1
10,CO[C@H]1CN(C)C(=O)c2ccc(NC(=O)Nc3ccccc3)cc2OC[C@H](C)N(C(=O)CN(C)C)C[C@@H]1C,inactive: 0.925
11,CN1C(=O)c2cc(NC(=O)C3CCOCC3)ccc2OC[C@@H]2O[C@H](CC(=O)NCc3ccc4c(c3)OCO4)CC[C@H]21,inactive: 1.05
12,Cc1noc(C)c1NC(=O)N(C)C[C@H]1Oc2ccc(NC(=O)C3CC3)cc2CC(=O)N([C@H](C)CO)C[C@H]1C,inactive: 1
13,C[C@@H]1CN([C@H](C)CO)C(=O)c2cccc(NC(=O)Nc3cccc4ccccc34)c2O[C@@H]1CN(C)Cc1ccc(Oc2ccccc2)cc1,inactive: 0.967
14,C[C@@H]1CCCCO[C@@H](CN(C)C(=O)Nc2ccc3c(c2)OCO3)[C@H](C)CN([C@@H](C)CO)C(=O)c2cc(NC(=O)CCC(F)(F)F)ccc2O1,inactive: 0.991
15,COc1ccc(S(=O)(=O)N(C)C[C@@H]2OCCCC[C@H](C)Oc3ccc(NC(=O)C4CCCCC4)cc3C(=O)N([C@H](C)CO)C[C@@H]2C)cc1,inactive: 1.03
16,CO[C@@H]1CN(C)C(=O)c2ccc(NS(C)(=O)=O)cc2OC[C@H](C)N(C(=O)C2CCCCC2)C[C@H]1C,inactive: 0.991
17,C[C@@H]1CCCCO[C@H](CN(C)S(=O)(=O)c2ccc(Cl)cc2)[C@@H](C)CN([C@@H](C)CO)C(=O)c2cc(NC(=O)Nc3ccccc3)ccc2O1,inactive: 1.04
18,O=C(CCCCCCC(=O)Nc1ccccc1O)N/N=C/[C@H](O)[C@@H](O)[C@@H](O)[C@H](O)C(=O)O,inactive: 1.01
